# Measurements taken from a collection of fitness landscapes (doi:10.1016/j.celrep.2020.107928).
# In all, about 81,000 sequences were measured (“one-hybrid fitness for binding parS DNA”: median about -0.17, highest 2% from about 0.51 on). The list shows a part of the results.
# B1: Caulobacter ParB omega fusion; a variant is named by its letters at X, in order, B8GW30 (parent)
# chain: MESVVVGEPGMSEGRRGLGRGLSALLGEVDAAPAQAPGEQLGGSREAPIEILQRNPDQPRRTFREEDLEDLSNSIREKGVLQPILVRPSPDTAGEYQIVAGERAWRAAQRAGLKTVPIMVRELDDLAVLEIGIIENVQRADLNVLEEALSYKVLMEKFERTQENIAQTIGKSXSHVANXMRLLXLPDEVQSYLVSGELTAXHARAIAAAADPVALAKQIIEGGLSVRETEALARKAPNLSAGKSKGGRPPRVKDTDTQALESDLSSVLGLDVSIDHRGSTGTLTITYATLEQLDDLCNRLTRGI
# Variants of: B1
# Assay: one-hybrid fitness for binding parS DNA (scaled: cognate 1, non-cognate 0); higher = stronger binding
# Conditions: with parS DNA site
# In short: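 Fitness is the rescaled log change in variant-to-wild-type read ratio, measured by Illumina sequencing of plasmids before and after bacterial one-hybrid selection. The scale puts cognate at 1 and non-cognate at 0. Selection of Caulobacter ParB libraries, four specificity codons randomised, took place in E. coli USO with a HIS3 reporter, site 19 bp from the promoter, over 48 hours at 37°C on M9-minus-histidine with 0.1 mM IPTG and 5 mM 3-AT.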
row,Variant,one-hybrid fitness for binding parS DNA
1,LAQT,≤ 0.2
2,RGWI,≤ 0.2
3,ALGC,≤ 0.2
4,DLSF,≤ 0.2
5,VETG,≤ 0.2
6,NAPV,≤ 0.2
7,NKHR,≤ 0.2
8,WSDW,≤ 0.2
9,RKHK,≤ 0.2
10,KGQV,≤ 0.2
11,HDFF,≤ 0.2
12,CYCR,≤ 0.2
13,MRFT,≤ 0.2
14,FCTS,≤ 0.2
15,GRLT,≤ 0.2
16,DGDN,≤ 0.2
17,ICLN,≤ 0.2
18,MRTR,≤ 0.2
19,KFFW,≤ 0.2
20,RQGR,≤ 0.2
21,TRPS,≤ 0.2
22,LITI,≤ 0.2
23,MHTS,≤ 0.2
24,ASFW,≤ 0.2
25,RPRW,≤ 0.2
26,CPME,≤ 0.2

row,Variant,one-hybrid fitness for binding parS DNA
1,HTDC,≤ 0.2
2,SNRG,≤ 0.2
3,RVLS,1.03
4,KGNH,≤ 0.2
5,PARW,≤ 0.2
6,VVTT,≤ 0.2
7,CDYR,≤ 0.2
8,CTCA,≤ 0.2
9,LSEC,≤ 0.2
10,TART,≤ 0.2
11,HKYR,≤ 0.2
12,RFQE,≤ 0.2
13,VYRG,≤ 0.2
14,DLKP,≤ 0.2
15,SNGD,≤ 0.2
16,TKKM,≤ 0.2
17,PHSL,≤ 0.2
18,QVNY,≤ 0.2
19,TSTA,≤ 0.2
20,WYRV,≤ 0.2
21,YFNS,≤ 0.2
22,ARLT,≤ 0.2
23,HYRA,≤ 0.2
24,PQAF,≤ 0.2
25,SFEA,≤ 0.2
26,GYDS,≤ 0.2

row,Variant,one-hybrid fitness for binding parS DNA
1,LISS,≤ 0.2
2,QQDV,≤ 0.2
3,TKQS,≤ 0.2
4,DRNN,≤ 0.2
5,YMMS,≤ 0.2
6,IYQR,≤ 0.2
7,TFRF,≤ 0.2
8,VCLC,≤ 0.2
9,QMGN,≤ 0.2
10,KVLM,≤ 0.2
11,PGTD,≤ 0.2
12,LEPN,≤ 0.2
13,AQKR,≤ 0.2
14,SCST,≤ 0.2
15,NDSA,≤ 0.2
16,GWVA,≤ 0.2
17,HHPH,≤ 0.2
18,VWQR,≤ 0.2
19,DLGG,≤ 0.2
20,WKFC,≤ 0.2
21,TVNV,≤ 0.2
22,KRHN,≤ 0.2
23,CILR,≤ 0.2
24,YWRE,≤ 0.2
25,LAGR,≤ 0.2
26,EVVI,≤ 0.2

row,Variant,one-hybrid fitness for binding parS DNA
1,QCIT,≤ 0.2
2,HCVV,≤ 0.2
3,PHQR,≤ 0.2
4,EANR,≤ 0.2
5,ATGI,≤ 0.2
6,HERT,≤ 0.2
7,MWPC,≤ 0.2
8,FVIS,≤ 0.2
9,YRVA,≤ 0.2
10,VVNL,≤ 0.2
11,DPAR,≤ 0.2
12,TPPS,≤ 0.2
13,AYFW,≤ 0.2
14,HHKG,≤ 0.2
15,SSQR,≤ 0.2
16,DRNP,≤ 0.2
17,GTFS,≤ 0.2
18,SMCH,≤ 0.2
19,NLAL,≤ 0.2
20,KAQH,≤ 0.2
21,AVVR,≤ 0.2
22,RYRT,0.737
23,QTGV,≤ 0.2
24,AMFD,≤ 0.2
25,FIKT,≤ 0.2
26,YGDG,≤ 0.2

row,Variant,one-hybrid fitness for binding parS DNA
1,CFKT,≤ 0.2
2,YCLE,≤ 0.2
3,ACPG,≤ 0.2
4,TRQL,≤ 0.2
5,YHLM,≤ 0.2
6,PNRE,≤ 0.2
7,QKEL,≤ 0.2
8,RWHN,0.301
9,HRLS,0.387
10,RKDH,0.231
11,KLMA,≤ 0.2
12,GARK,≤ 0.2
13,GNYC,≤ 0.2
14,DMPV,≤ 0.2
15,DNLL,≤ 0.2
16,HEAS,≤ 0.2
17,VEPL,≤ 0.2
18,HGRK,≤ 0.2
19,SRCA,≤ 0.2
20,GMTS,≤ 0.2
21,LRNT,≤ 0.2
22,HYSL,≤ 0.2
23,AYKY,≤ 0.2
24,MNAP,≤ 0.2
25,RTPL,≤ 0.2
26,SVQT,≤ 0.2

row,Variant,one-hybrid fitness for binding parS DNA
1,VMRG,≤ 0.2
2,VGYR,≤ 0.2
3,HCVE,≤ 0.2
4,SRSQ,≤ 0.2
5,VSMF,≤ 0.2
6,LYNY,≤ 0.2
7,SWHT,≤ 0.2
8,YQPN,≤ 0.2
9,RRDI,≤ 0.2
10,GIAR,≤ 0.2
11,AENT,≤ 0.2
12,TGWI,≤ 0.2
13,GFLD,≤ 0.2
14,MRSK,≤ 0.2
15,VYDH,≤ 0.2
16,RLKQ,≤ 0.2
17,DTNR,≤ 0.2
18,TYFC,≤ 0.2
19,ESDS,≤ 0.2
20,PTCR,≤ 0.2
21,SHEC,≤ 0.2
22,GERG,≤ 0.2
23,RLIT,0.795
